Laboratory results: the supplement of paper PMC10185492
This is one part of the list. Values come from read counts of a selection and are noisy.

The substances below were run on SARS-CoV-2 3CLpro (nsp5) (assay: substrate phage enrichment score (protease-eluted vs HEPES control, +1 offset) (ratio); higher = better cleaved substrate). Settings: selection round: 4; protease elution time: 15 min.
Protocol: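 Random heptapeptide substrate phage display (M13 pIII fusion, heptapeptide between an N-terminal biotinylated AviTag GLNDIFEAQKIEWHE and pIII; phages immobilised on streptavidin) eluted by cleavage with 50 nM protease in 20 mM HEPES at 37 °C. Selected phages were NGS sequenced, and the enrichment score is (reads in protease sample + 1)/(reads in HEPES blank-selection control + 1).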

Substance	substrate phage enrichment score
LNVSELK	1.15
QIGPITR	> 21
THTGKCM	0.833
ARGELGY	1.36
AYDSEFS	0.917
YGNQGLN	2.33
GIAAAHH	1.17
TYGHNEL	> 30
HYENMIN	2
DCGAQVR	> 29
LCEQQML	1.46
QYPPARL	0.0909
EPSAKPY	0.692
TNKFLWQ	> 81
CLHVNSP	0.412
ANLYPRY	1.64
MPLPQGR	> 24
CVSQPNR	> 36
AHQNERM	> 35
TVGGLIC	> 25
TETRFRE	> 47
AAAQHHH	1.09
CAAAQQK	2.14

Substance	substrate phage enrichment score
PKEPPFS	> 27
EQHPARI	0.438
GATDMPH	5.14
QDTLEED	14.7
RVPAKLQ	> 52
ECDARSI	> 29
HTDYVTE	5.03
RRRCSLM	302
CRLSTRD	3.85
SYSPFSE	10
GRHKSHV	> 21
VRPHNNI	1
NRHLARP	> 30
LPCSNLR	1.12
SAAPQHQ	2.62
CKAAHHH	1.05
DEQGVQT	0.407
CRTVETR	> 25
YRGGSNH	0.556
ALSPPGP	> 48
CAPRMTG	> 22
ANQQNGR	7.6
AGDGSVY	5.8

Substance	substrate phage enrichment score
AHHAGQR	0.667
TPCQASG	0.81
AFDKFRQ	> 23
NAQENAA	> 122
HPMWAPG	> 32
CASYNSS	7
TQQYCQG	0.6
HIKQNKP	> 22
RTSTQFR	1.08
YPQTRLQ	> 108
RAAELIS	5
AADLNNR	1.7
SAAAHQH	1.3
PKMYIPG	> 25
PPVNKNG	0.667
TQLISND	20.5
GGAAAHH	0.675
KATKPRP	18.3
QCFQGGS	6
QQYFQGG	0.467
GTTRLQA	> 1080
AAAHHNH	1.6
YASSSGR	1.75

Substance	substrate phage enrichment score
PGNAFTD	> 29
DQQLPTQ	0.121
HPVNNFS	10.4
HGGSAAA	2.14
CKWHEGM	> 31
ECDWAMP	> 29
EAPATTH	1.56
ELSGRKH	0.694
QASRKSD	> 22
DETQNRQ	0.16
TARLQSA	> 67
RKQTRLQ	> 301
LQEIPLR	> 33
LTRGTDY	> 31
RPLCKMG	13.5
SSPQKWP	1.46
ANREGLI	1.15
SSLTGIG	13.7
RQPVGIP	22
HAASRTR	> 21
SGVPSAR	27.2
DTLSELQ	> 50
SGTCVLH	> 94

Substance	substrate phage enrichment score
ARPSQLM	> 21
HSPEPVH	0.739
GTGYQPH	0.833
AQSHVYG	> 27
RQESVDP	19.5
PCTYFGT	> 27
GPRNTLR	8.67
ARLQSGS	> 117
ATTSGGS	0.273
PPGRATC	1.14
FQRCPDT	> 21
VVKTGVH	> 88
CTENRTR	0.4
LIDSAQR	> 53
CGAAHHH	0.468
QTAAHHH	0.448
RQDSRFG	> 45
AAQTFPA	0.224
LKDNSQQ	> 26
QNGTRVS	> 24
SDCVRSG	2
GSPAAHH	0.385
PQGMQRW	> 30

Substance	substrate phage enrichment score
LTGALLQ	6.33
QQTTKRG	0.737
NRCSQRW	> 23
LNVNSPR	5.2
QTCLQGG	> 35
NDLNAVK	7.43
AVDQPKQ	2.21
HRCKAGF	2.06
SAAEHHH	0.947
ETHGPFG	> 231
YGPRTGM	6.33
WNHRDTR	12.5
LGPGTAG	0.379
PTQPTAQ	> 22
TAAHHHH	0.82
FCVICDR	> 33
STSRLQS	29
LYFRGGS	0.905
HKIYDGQ	> 21
SPEHEIR	0.696
ASTTKLT	11.5
GRCPTTP	14.5
THLAYPW	0.433

Substance	substrate phage enrichment score
SDTARGS	> 45
ARNFEHR	2.67
HPGWGAM	> 23
NGAAHHH	1.09
SILECRG	> 41
ETGILQS	> 30
GCRNKNV	2.86
RQTYIYG	817
QYRSTDT	0.467
TAAAHHH	0.724
NPGYRMS	1.07
HTAAHHH	1.51
KHHCLIR	> 44
TSALCKG	> 22
QYGSVHQ	7.4
TRWCSIA	> 22
APCTQNF	> 27
SSSSELN	> 22
VANLQAG	> 504
SSLQSSK	> 21
RNDHLTE	0.647
RADAILQ	> 106
LDSAAAK	> 53

Substance	substrate phage enrichment score
VGSSYVR	4.4
TSLTPRQ	5.58
RDTRPVF	> 31
SLGVQLR	> 22
VNRTKPR	14.5
PQAHAKE	5.75
KSKEYYS	0.409
SSYGNKS	> 30
VTNLKAN	6.25
RQEQRYY	1.24
NRGAKLQ	39.5
AENRLKV	5.25
ANGSTYR	4.75
SRMVHVT	> 22
SPKNHMQ	> 40
QAGKWTC	2.43
NHCTWAH	1.56
KQKCTNP	0.4
SPGSKTL	17.5
IKLQSYD	> 80
LNPHLQS	> 43
QSWGISQ	> 49
PSYWRGQ	> 23
